# Measurements published in the supplement of paper PMC11060735.
# “And” between values parts separate entries of the source, which are not always exact repeats. Equal entries are not always repeated. Structures can show the parent of a compound that is named as a salt. Out of some 1,800 compounds screened, about 50 (3%) showed activity. This is one part of the list.
# System: mouse p16Ink4a+/- lung fibroblasts (INKBRITE, bleomycin-injured)
# Test: percentage of GFP+ (p16Ink4a+) fibroblasts among all cells in well; higher = less depletion of p16Ink4a+ cells, active = 20 or less
# Conditions: 1 µM; 3 days
# 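Also: fibroblasts sorted 14 days after bleomycin, GFP+ and GFP− mixed 1:1 in 384-well plates (GFP− as in-well control), imaged after Hoechst and NucView530 staining, reference wells lacked compound.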
row,SMILES,percentage of GFP+
1,O=C(O)c1ccc2c(c1)nc(Nc1cccc(Cl)c1)c1ccncc12 [Silmitasertib],inactive: 43.8%
2,CC(C)NCC(O)COc1cccc2ccccc12 (centres undefined) [Propranolol],inactive: 48.8%
3,O=C1CCc2ccc(OCCCCN3CCN(c4cccc(Cl)c4Cl)CC3)cc2N1 [Aripiprazole],inactive: 43.3%
4,COc1cc(O)cc([C@@H]2CC(=O)c3c(O)cc(O[C@@H]4O[C@H](CO)[C@@H](O)[C@H](O)[C@H]4O[C@@H]4O[C@@H](C)[C@H](O)[C@@H](O)[C@H]4O)cc3O2)c1 [Neohesperidin],inactive: 49.7%
5,CCCCOc1cc(C(=O)NCCN(CC)CC)c2ccccc2n1 [Cinchocaine],inactive: 47.9%
6,COc1ccc(-c2coc3cc(O)ccc3c2=O)cc1 [Formononetin],inactive: 41.6%
7,Nc1ccccc1NC(=O)c1ccc(CNc2nccc(-c3cccnc3)n2)cc1 [Mocetinostat],active: 12.6%
8,C/C(=C\C(=O)Nc1ccccc1C(=O)O)c1ccc2ccccc2c1,inactive: 30%
9,C#Cc1cccc(Nc2ncnc3cc(OCCOC)c(OCCOC)cc23)c1 [Erlotinib],active: 7.35%
10,C=CC[N+]1([C@H]2C[C@H]3[C@@H]4CC[C@H]5C[C@H](O)[C@@H](N6CCOCC6)C[C@]5(C)[C@H]4CC[C@]3(C)[C@H]2OC(C)=O)CCCC1 [Rocuronium],inactive: 54.9%
11,COc1c(C)c2c(c(O)c1C/C=C(\C)CCC(=O)O)C(=O)OC2 [Mycophenolic Acid],inactive: 25.9%
12,C[C@]12C=CC(=O)C=C1CC[C@@H]1[C@@H]2[C@@H](O)C[C@@]2(C)[C@H]1CC[C@]2(O)C(=O)CO [Prednisolone],inactive: 34.4%
13,CCCCNC(=O)NS(=O)(=O)c1ccc(C)cc1 [Tolbutamide],inactive: 46.3%
14,CN1C(C(=O)Nc2ccccn2)=C(O)c2sccc2S1(=O)=O [Tenoxicam],inactive: 39.1%
15,COc1cc(-c2ncn(/C=C\C(=O)OC(C)C)n2)cc(C(F)(F)F)c1,active: 14.1%
16,CO/C(O)=C1\C(C)=NC(C)=C(C(=O)OCCN2CCN(C(c3ccccc3)c3ccccc3)CC2)C1c1cccc([N+](=O)[O-])c1 (centres undefined) [Manidipine],inactive: 42.8% and inactive: 51.3%
17,O=c1c(O)c(-c2cc(O)c(O)c(O)c2)oc2cc(O)cc(O)c12 [Myricetin],inactive: 34.4%
18,O=C(O)c1cccc(-c2noc(-c3ccccc3F)n2)c1 [Ataluren],inactive: 45.4%
19,CCc1nc(N)nc(N)c1-c1ccc(Cl)cc1 [Pyrimethamine],inactive: 44.1%
20,Cc1cnc(C(=O)NCCc2ccc(S(=O)(=O)NC(=O)NC3CCCCC3)cc2)cn1 [Glipizide],inactive: 41.1%
21,O=C1C(Cl)=C(N2CCOCC2)C(=O)N1c1ccc(Cl)c(Cl)c1,inactive: 40.2%
22,CCOc1ccc2ccccc2c1C(=O)N[C@@H]1C(=O)N2[C@@H]1SC(C)(C)[C@@H]2C(=O)O [Nafcillin Sodium],inactive: 49.6%
23,O=C(O)c1ccccc1 [Benzoic Acid],inactive: 44.8%

row,SMILES,percentage of GFP+
1,CCOC(=O)C1=C(C)N=C(C)/C(=C(/O)OCC)C1c1ccccc1/C=C/C(=O)OC(C)(C)C (centres undefined) [Lacidipine],inactive: 45.2%
2,CC(=O)Nc1nc2c(Oc3cc(-c4ccc(C(F)(F)F)cc4)ncn3)cccc2s1,inactive: 55.4%
3,"O=C1c2ccccc2-c2[nH]nc3cccc1c23 [2,6-Dihydroanthra/1,9-Cd/Pyrazol-6-One]",inactive: 40.5%
4,COC(=O)Nc1ccc(-c2nc(N3CCOCC3)c3cnn(C4CCN(C(=O)OC)CC4)c3n2)cc1,inactive: 36.4%
5,Clc1ccc(COC(Cn2ccnc2)c2ccc(Cl)cc2Cl)cc1 (centres undefined) [Econazole],inactive: 39.9%
6,Cc1ccc(-c2c(-c3nn(C)c4ncnc(N5CC[C@H](N6CCCCC6)C5)c34)cnn2C)cc1,inactive: 45.1%
7,CC1(C)O[C@@H]2C[C@H]3[C@@H]4C[C@H](F)C5=CC(=O)C=C[C@]5(C)[C@@]4(F)[C@@H](O)C[C@]3(C)[C@]2(C(=O)CO)O1 [Fluocinolone Acetonide],inactive: 38.9%
8,CC[C@@H](C)Nc1cc(C(=O)NC2CC3CCC(C2)N3c2ccc(C(=O)C3CC3)cn2)c(C)cc1C(N)=O (some centres undefined),active: 5.49%
9,Cc1nc(NC(=O)N2CCC[C@H]2C(N)=O)sc1-c1csc(C(C)(C)C)n1,inactive: 40.6%
10,CC(=O)/N=c1/sc(S(N)(=O)=O)nn1C [Methazolamide],inactive: 43.3%
11,COc1ccc(-n2c(C)c([N+](=O)[O-])c3ccc(O)cc32)cc1,inactive: 45.5%
12,CCCCCCCCc1ccc(CCC(N)(CO)CO)cc1 [Fingolimod],inactive: 26.5%
13,Oc1ncc(F)c(O)n1 [Fluorouracil],inactive: 35.8%
14,COc1ccc(-c2cc(=O)c3c(O)cc(O)cc3o2)cc1O [Diosmetin],inactive: 42.4%
15,CN(C)Cc1c(C(=O)NCCOc2ccc(C(=O)NO)cc2)oc2ccccc12 [Abexinostat],inactive: 32.7%
16,Cc1cc(CN2CCN(c3c(Br)cnc4[nH]c(-c5ccc(N6CCN(C)CC6)cc5)nc34)CC2)no1,inactive: 44%
17,O=C1C[C@@H](c2ccc(O)cc2)Oc2cc(O)cc(O)c21 [Naringenin],inactive: 44.1%
18,COc1cnc(NS(=O)(=O)c2ccc(N)cc2)nc1 [Sulfameter],inactive: 45.9%
19,CC(C)c1cc(C(=O)N2Cc3ccc(CN4CCN(C)CC4)cc3C2)c(O)cc1O [Onalespib],active: 9.46%
20,"CC(=O)O[C@H]1C(=O)[C@@]2(C)C([C@H](OC(=O)c3ccccc3)[C@]3(O)C[C@H](OC(=O)[C@H](O)[C@@H](NC(=O)c4ccccc4)c4ccccc4)C(C)=C1C3(C)C)[C@]1(OC(C)=O)CO[C@@H]1C[C@@H]2O (some centres undefined) [Taxol, Paclitaxel]",inactive: 35.8%
21,C[C@H]1[C@H](C)CC[C@]2(C(=O)O)CC[C@]3(C)C(=CC[C@@H]4[C@@]5(C)C[C@@H](O)[C@H](O)[C@@](C)(CO)[C@@H]5CC[C@]43C)[C@H]12 [Asiatic Acid],inactive: 45.9%
22,C[C@@H]1COC(Nc2ccc3ncnc(Nc4ccc(OCc5nccs5)c(Cl)c4)c3c2)=N1 [Varlitinib],inactive: 50.6%
23,CCOC(=O)C1=C[C@@H](OC(CC)CC)[C@H](NC(C)=O)[C@@H](N)C1 [Oseltamivir],inactive: 40.5%

row,SMILES,percentage of GFP+
1,O=c1[nH]c(=O)n([C@H]2CCCO2)cc1F,inactive: 33.8%
2,CC(C)(C(=O)O)c1ccc(C(O)CCCN2CCC(C(O)(c3ccccc3)c3ccccc3)CC2)cc1 (centres undefined) [Fexofenadine],inactive: 45%
3,"CC(=O)[C@]1(O)Cc2c(O)c3c(c(O)c2[C@@H](O[C@H]2C[C@H](N)[C@H](O)[C@H](C)O2)C1)C(=O)c1ccccc1C3=O [Idarubicin, Idarubicin Hydrochloride]",active: 19.9%
4,Nc1ccc(C(=O)Nc2cccc(-c3nc(N4CCOCC4)c4oc5ncccc5c4n3)c2)cn1,inactive: 51%
5,C[C@]12CCC(=O)C=C1[C@@H]1C[C@@H]1[C@H]1[C@@H]3[C@@H]4C[C@@H]4[C@@]4(CCC(=O)O4)[C@@]3(C)CC[C@@H]12 [Drospirenone],inactive: 39.8%
6,CC(C)(OCc1nn(Cc2ccccc2)c2ccccc12)C(=O)O [Bindarit],inactive: 45.3%
7,CC(=O)Oc1ccccc1C(=O)Nc1ncc([N+](=O)[O-])s1 [Nitazoxanide],inactive: 38.4%
8,O=C(CCCS)NC1CCN(C(=O)COc2ccc(Cl)cc2Cl)CC1 [K-Ras(G12C) inhibitor 6],inactive: 47.3%
9,"COc1cc2nc(N(C)CCCNC(=O)C3CCCO3)nc(N)c2cc1OC (centres undefined) [Alfuzosin Hydrochloride, Alfuzosin]",inactive: 32.6%
10,O=C(Nc1ccccc1)c1ccccc1O [Salicylanilide],inactive: 55.1%
11,N#CC[C@H](C1CCCC1)n1cc(-c2ncnc3[nH]ccc23)cn1 [Ruxolitinib],inactive: 44.6%
12,Cc1noc(NS(=O)(=O)c2ccc(N)cc2)c1C [Sulfisoxazole],inactive: 44.1%
13,c1ccc([C@H]2CN3CCSC3=N2)cc1 [Levamisole],inactive: 48.7%
14,C=C[C@@]1(C)CC(=O)[C@]2(O)[C@@]3(C)[C@@H](O)CCC(C)(C)[C@@H]3[C@H](O)[C@H](OC(C)=O)[C@@]2(C)O1 [Colforsin],inactive: 47.6%
15,NC1=NCC2c3ccccc3Cc3ccccc3N12 (centres undefined) [Epinastine],inactive: 48.1%
16,O=C(NC(NC(=S)Nc1ccc(F)c([N+](=O)[O-])c1)C(Cl)(Cl)Cl)C(c1ccccc1)c1ccccc1 (centres undefined),inactive: 43.1%
17,CC(=O)Nc1cccc2c1c(Sc1ccc(Cl)cc1)c(C)n2CC(=O)O,inactive: 44.6%
18,C=CC(=O)Nc1cccc(Nc2nc(Nc3ccc(N4CCN(C(C)=O)CC4)cc3OC)ncc2C(F)(F)F)c1,inactive: 36%
19,CCS(=O)(=O)Nc1ccc2[nH]c(O)c(/C(=N/c3ccc(CN4CCCCC4)cc3)c3ccccc3)c2c1 [Hesperadin],inactive: 21.4%
20,O=C(c1ccc(/C=C/c2[nH]nc3ccccc23)cc1)N1CCNCC1,inactive: 37.7%
21,CCNC1=N[C@@H]2[C@@H](O)[C@H](O)[C@@H](CO)O[C@@H]2S1 [Thiamet G],inactive: 56.9%
22,CN1CCN2c3ccccc3Cc3ccccc3C2C1 (centres undefined) [Mianserin],inactive: 41.5%
23,C[C@H]1O[C@@H](n2cc(F)c(=O)[nH]c2=O)[C@H](O)[C@@H]1O [Doxifluridine],inactive: 37.5%
